Among the data in patent US20150004162A1 are binding values, retold here.

Chains of the proteins cited; added tags and fusions are not shown. Lines headed by an entry give the natural chain unless they say otherwise; changes in a name come on top.
UniProt O14763: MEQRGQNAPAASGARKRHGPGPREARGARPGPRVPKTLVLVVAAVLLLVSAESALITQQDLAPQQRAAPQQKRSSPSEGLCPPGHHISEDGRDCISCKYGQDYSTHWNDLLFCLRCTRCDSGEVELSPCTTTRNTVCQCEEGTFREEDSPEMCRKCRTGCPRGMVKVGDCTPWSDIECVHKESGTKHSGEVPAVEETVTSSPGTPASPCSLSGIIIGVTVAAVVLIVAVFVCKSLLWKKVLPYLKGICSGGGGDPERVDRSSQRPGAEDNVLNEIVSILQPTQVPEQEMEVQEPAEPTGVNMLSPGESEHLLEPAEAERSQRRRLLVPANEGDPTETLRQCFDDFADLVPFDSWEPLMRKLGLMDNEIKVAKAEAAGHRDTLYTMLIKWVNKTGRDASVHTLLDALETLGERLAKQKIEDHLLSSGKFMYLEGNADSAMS

Test [1] deals with human DR5-Fc (human) (UniProt O14763). The test is described as follows: ELISA, 10 nM bivalent SBP on coated human DR5-Fc (100 ng/well). On the technique in general: An ELISA detects its analyte on a solid surface through an enzyme-linked reagent.
Test [2] addresses human DR5 (human) (UniProt O14763). Nature of the test: antigen ELISA on coated human DR5.
The target in test [3] is T1, human DR4 (human) (UniProt O00220).
T1 sequence: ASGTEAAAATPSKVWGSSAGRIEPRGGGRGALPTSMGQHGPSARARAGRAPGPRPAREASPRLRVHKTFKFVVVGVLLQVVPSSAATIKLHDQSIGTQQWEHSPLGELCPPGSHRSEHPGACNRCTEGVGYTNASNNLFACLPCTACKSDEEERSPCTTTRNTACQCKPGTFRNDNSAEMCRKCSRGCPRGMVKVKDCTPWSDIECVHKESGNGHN
The test is described as follows: antigen ELISA on coated human DR4.

Test [4] deals with T2, human DR4-Fc (human) (UniProt O00220).
T2 sequence: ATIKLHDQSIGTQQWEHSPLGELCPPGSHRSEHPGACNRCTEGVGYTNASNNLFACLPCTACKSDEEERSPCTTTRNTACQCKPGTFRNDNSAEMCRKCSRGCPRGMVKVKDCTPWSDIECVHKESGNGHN
Nature of the test: ELISA, 10 nM bivalent SBP on coated human DR4-Fc (100 ng/well).

Test [5] addresses T3, hOPG (human) (UniProt O00300).
T3 sequence (receptor, looked up): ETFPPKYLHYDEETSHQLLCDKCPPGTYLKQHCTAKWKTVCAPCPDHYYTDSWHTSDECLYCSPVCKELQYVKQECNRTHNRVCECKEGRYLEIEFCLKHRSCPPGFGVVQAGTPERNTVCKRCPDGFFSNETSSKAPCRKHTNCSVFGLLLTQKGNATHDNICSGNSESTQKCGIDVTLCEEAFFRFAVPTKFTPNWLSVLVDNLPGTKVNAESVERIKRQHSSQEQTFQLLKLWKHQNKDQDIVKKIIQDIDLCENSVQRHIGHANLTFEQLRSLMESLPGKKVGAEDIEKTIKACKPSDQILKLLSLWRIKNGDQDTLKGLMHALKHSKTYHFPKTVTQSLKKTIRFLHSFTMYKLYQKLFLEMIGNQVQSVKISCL
The test is described as follows: ELISA, bivalent SBP on TRAIL receptor family proteins [C].

The target of test [6] is human DR5-Fc (human) (UniProt O14763). Nature of the test: ELISA, 100 ng/well human DR5-Fc, 10 nM bivalent SBP, detection HRP-aVpreB.
Test [7] deals with T2, human DR4-Fc (human). The test is described as follows: ELISA, 100 ng/well human DR4-Fc, 10 nM bivalent SBP, detection HRP-aVpreB.
In test [8] the target is T4, Rhesus (NHP-2) DR4-Fc (Rhesus) (UniProt F6TP00).
T4 sequence: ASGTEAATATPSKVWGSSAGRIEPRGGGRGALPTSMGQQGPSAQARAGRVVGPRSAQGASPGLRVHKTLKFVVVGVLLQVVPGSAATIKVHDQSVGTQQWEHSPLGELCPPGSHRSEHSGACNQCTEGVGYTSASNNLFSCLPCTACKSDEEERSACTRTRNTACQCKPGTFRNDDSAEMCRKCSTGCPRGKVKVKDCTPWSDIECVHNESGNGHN
The test is described as follows: ELISA, half-log dilutions on coated Fc fusion, anti-VpreB-HRP.

Test [9] addresses T4, Rhesus (NHP-2) DR4-Fc (Rhesus). The test is described as follows: ELISA on coated NHP-2 DR4-Fc, detection with anti-VpreB-HRP [panel C].
Test [10] has the same target. Nature of the test: ELISA on coated Fc fusion (figure legend).

Positions count from the first letter of the chain named. Results are given in words; binding and its absence hold for the method and conditions named. Some results given as binding are weak or reduced against the parent protein; the word gives no strength. For some of these results: Sequences can lack the tags named with a protein.

B1: 3631-G09 bivalent SBP (protein)
VH: EVQLVESGGGLVKPGGSLRLSCAASGFTFSTYGMHWVRQAPGKGLEWVAGINYSGNNKYYADSVKGRFTISRDNAKNSLYLQMNSLRAEDTAVYYCARDHSTWLSRHLDYWGQGTLVTVSS
surrogate light: QPVLHQPPAMSSALGTTIRLTCTLRNDHDIGVYSVYWYQQRPGHPPRFLLRYFSQSDKSQGPQVPPRFSGSKDVARNRGYLSISELQPEDEAMYYCAMGARSSVTHVFGSGTQLTVLSQPKATPSVTLFPPSSEELQANKATLVCLMNDFYPGILTVTWKADGTPITQGVEMTTPSKQSNNKYAASSYLSLTPEQWRSRRSYSCQVMHEGSTVEKTVAPAECS
Take B1: the binding entry in test [1] was “binds”; in [2], “binds”; in [3], “binds”; in test [4], “binds”; in test [5] it was “no binding (tested: 1000 nM)”; in test [6], “binds”. Further, the binding result in [7] is reported as “binds”.

B2: 3706-A02 (SL466) (protein)
VH: B1 VH with H100S, W103T, L104R, S105T, H107A
light: B1 surrogate light
As to B2, the binding entry in [8], in test [9] and in test [10] was “binds” each time.
